In PubChem BioAssay AID540267 (National Center for Advancing Translational Sciences (NCATS), 2011):
Out of some 340,000 compounds screened, about 530 (0.16%) were called active. The inconclusive results got no clear call from the source; some entries with a clear call stand among them for comparison. Rule as the data show it: active = activity change below about -80%; inconclusive = between about -30% and that limit; inactive = weaker than that.

assay: Small Molecules that selectively kill Giardia lamblia: qHTS; details: Giardia lamblia trophozoite viability; at 7.66 µM; stronger effect = lower value;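 also: parasites exposed to compound for two days anaerobically before the ATP read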
Method in brief: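 Luminescence from cellular ATP indicates surviving trophozoites (100 cells/well) following 48 hrs anaerobic compound treatment at 37 deg C; signal develops 15-30 min at room temperature.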
% is scaled to controls: 0 for no effect and ±100 for the full control effect.

| Structure (SMILES) | activity change |
| --- | --- |
| COc1ccc(-c2ccc(SCC(=O)Nc3nnc(C)s3)nn2)cc1 | inconclusive: -31.3% [inhibitor] |
| O=C(NCC1CCCN1S(=O)(=O)c1cccs1)c1ccc(Cl)cc1 (centres undefined) | inconclusive: -30.3% [inhibitor] |
| CS(=O)(=O)N1CCCC(C(=O)N2CCN(c3cccc(Cl)c3)CC2)C1 (centres undefined) | inconclusive: -30.7% [inhibitor] |
| CC1(C)CCC(=O)N2CC[C@H]3C[C@H](OC(=O)Nc4ccc(Br)cc4)C[C@@H]1[C@H]32 | inconclusive: -30.1% [inhibitor] |
| CC(C)(C)OC(=O)C[C@H]1C/C=C\C[C@H](CC(=O)N(CCO)Cc2ccccc2)C(=O)N[C@@H](c2ccccc2)COC1=O | inconclusive: -31.2% [inhibitor] |
| CN1CCN(c2ncnc3sc(-c4ccccc4)cc23)CC1 | inactive: 3.83% |
| O=C(NCC(c1ccco1)N1CCCCC1)c1ccc([N+](=O)[O-])s1 (centres undefined) | inconclusive: -31.1% [inhibitor] |
| CN1CCN(c2ccc(-c3ccc4ccccc4n3)cc2)CC1 | inconclusive: -48.4% [inhibitor] |
| O=C(N/N=C\c1ccc([N+](=O)[O-])s1)C1COc2ccccc2O1 (centres undefined) | active: -85.1% |
| CCNC(=O)Oc1ccc(-c2csnn2)cc1 | inconclusive: -31.5% [inhibitor] |
| COc1ccc(CNC(=O)Cn2ccc(N)nc2=O)cc1 | inconclusive: -34.7% [inhibitor] |
| COc1cc(-c2cc(C(F)(F)F)n3ncc(C(=O)O)c3n2)cc(OC)c1OC | inactive: -2.87% |
| Cc1ccnc(NC(=O)c2ccc([N+](=O)[O-])o2)c1 | inconclusive: -58.2% [inhibitor] |
| COc1ccccc1NC(=O)Nc1ccncc1 | inconclusive: -33.8% [inhibitor] |
| CCCn1c(=O)c(C(=O)NCCc2ccc(OC)cc2)c(O)c2ccccc21 | inactive: 21.2% |
| COc1ccc(S(=O)(=O)Nc2cccc(-c3ccc4nncn4n3)c2)c(OC)c1 | inactive: 9.08% |
| CCOC(=O)CN1C(=O)CC(c2ccc([N+](=O)[O-])cc2)C1=O (centres undefined) | inconclusive: -33.5% [inhibitor] |
| Cc1ccc(C2=NCCn3c2c2ccc(C(F)(F)F)cc2[n+]3[O-])cc1 | active: -84.1% |
| COc1cc(C(=O)NCCOc2ccccc2C)cc(OC)c1OC | inactive: -12.6% |
| COc1ccccc1C(=O)NC(CCSC)C(=O)NCCCn1nc(C)cc1C (centres undefined) | inactive: -21.7% |
| O=C(Nc1ccc(Cl)cc1)c1csc(-c2ccccc2)n1 | inactive: -1.57% |
| COc1ccc(NC(=O)O/N=C/c2c(C)nn(C(C)(C)C)c2C)cc1 | inconclusive: -40.8% [inhibitor] |
| O=C(CNS(=O)(=O)c1ccccc1)N/N=C/c1ccncc1 | inconclusive: -34.6% [inhibitor] |
| CCc1cc2c(NCc3ccccc3)nc(C)nc2s1 | inconclusive: -44% [inhibitor] |
| Cc1cccc(OCCCN2CCCCCC2)c1 | inactive: 6.49% |

| Structure (SMILES) | activity change |
| --- | --- |
| COc1cc2c(cc1OC)CN(C(=O)c1cc(S(=O)(=O)N3CCCCC3)ccc1Cl)CC2 | inconclusive: -30.3% [inhibitor] |
| CCOc1cc(CNC(C)C)c(Cl)cc1OCC(=O)NCCc1ccccc1 | inactive: -7.54% |
| COc1ccccc1CNC(=O)C1CC(c2ccccc2[N+](=O)[O-])=NO1 (centres undefined) | inconclusive: -42.4% [inhibitor] |
| CC(NCC(O)COC1CCC(C(C)(C)C)CC1)c1ccccc1 (centres undefined) | inconclusive: -30.7% [inhibitor] |
| CCn1c(SCC(=O)NC2CCCC2)nnc1-c1ccco1 | inconclusive: -32.3% [inhibitor] |
| CC1CCCCC1NC(=O)C1CCN(S(=O)(=O)c2cccc3nsnc23)CC1 (centres undefined) | inactive: -12.3% |
| O=C(COc1ccccc1)N=C1SC2CS(=O)(=O)CC2N1c1ccccc1F (centres undefined) | inconclusive: -49.2% [inhibitor] |
| CCn1c(=S)sc2c(=O)n(CC(=O)Nc3cccc(Br)c3)c(C)nc21 | inconclusive: -38.7% [inhibitor] |
| CCn1c(O)c(C=Nc2ccccc2)sc1=O | inconclusive: -38.3% [inhibitor] |
| Cc1cc(Cl)ccc1OCCCC(=O)OCC(=O)c1c(N)n(C)c(=O)n(C)c1=O | inconclusive: -34% [inhibitor] |
| CCCCN(C(=O)c1cc2c(s1)CCC2)c1c(N)n(CC(C)C)c(=O)[nH]c1=O | inconclusive: -35.5% [inhibitor] |
| COc1ccc(-n2nc(C(=O)NCC(=O)N3CCN(c4ccccc4OC)CC3)c3ccccc3c2=O)c(OC)c1 | inconclusive: -32.7% [inhibitor] |
| CCOC(=O)CSc1nnc(-c2ccc(S(=O)(=O)NCc3cccs3)cc2)o1 | inconclusive: -33.1% [inhibitor] |
| CCOc1ccc(C(=O)Cn2cnc3ccccc3c2=O)cc1 | inconclusive: -31.9% [inhibitor] |
| Cc1ncc([N+](=O)[O-])n1Cc1ccc(Br)cc1 | inconclusive: -43.3% [inhibitor] |
| CC12CCC3c4ccc(O)cc4CCC3C1CC(O)C2O (centres undefined) | inconclusive: -37.6% [inhibitor] |
| O=C1c2ccccc2C(=O)c2cc(S(=O)(=O)Nc3ccccc3)ccc21 | inconclusive: -30% [inhibitor] |
| COc1ccc(/C=N/NC(=O)c2ccn[nH]2)cc1COc1ccc(Cl)cc1Cl | inactive: -0.284% |
| O=C(COC(=O)c1cc(S(=O)(=O)N2CCCC2)ccc1O)Nc1ccc(SC(F)F)cc1 | inconclusive: -30.9% [inhibitor] |
| COc1ccc(-n2nc([N+](=O)[O-])c(=NCCc3ccc(C)cc3)n2O)cc1 | active: -92.9% |
| COc1ccc([N+](=O)[O-])c(OC)c1C(=O)NC(=O)Nc1nc(C)cc(C)n1 | inconclusive: -31.6% [inhibitor] |
| COc1nc(N(C)C)nc(N(C#N)S(=O)(=O)c2ccc(C)cc2)n1 | inconclusive: -34% [inhibitor] |
| Cc1ccsc1C(=O)OCC(=O)c1cc(C)n(CC2CCCO2)c1C (centres undefined) | inconclusive: -42.9% [inhibitor] |
| CC(=O)Nc1ccc(S(=O)(=O)Oc2ccc(/C=C3\SC(N)=NC3=O)cc2)cc1 | inconclusive: -31.1% [inhibitor] |
